Data on 109 sequences can be found in the supplement of paper PMC4166925.

± gives the standard deviation of the averaged measurements. Whole data set: some 33,000 sequences, median “E-score (dimensionless, -0.5 to 0.5)” near -0.049, cut for the highest 2% near 0.37. Some of the results follow.

The test has as its system T1, PmTbr T-box DNA-binding domain (GST fusion).
T1 sequence: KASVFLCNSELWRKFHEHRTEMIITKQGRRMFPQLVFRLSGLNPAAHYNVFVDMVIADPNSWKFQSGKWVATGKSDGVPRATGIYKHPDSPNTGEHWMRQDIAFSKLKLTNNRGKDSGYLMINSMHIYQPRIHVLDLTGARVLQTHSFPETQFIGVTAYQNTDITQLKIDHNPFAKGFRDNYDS
Briefly: PBM E-score of 8-mer (E-score (dimensionless, -0.5 to 0.5)); Tbr is Tbrain of the sea star Patiria miniata (Pm) or the sea urchin Strongylocentrotus purpuratus (Sp); higher = stronger binding preference; most listed sequences are background and not binding sites. The settings on record: the construct has about 5 more residues each side. Summed up:
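Expression of GST-fused Tbr T-box DNA-binding domains, each holding the full T-box plus roughly five flanking residues, was carried out in BL21 E. coli at 20 °C, with purification by glutathione affinity chromatography. Universal Agilent arrays made double-stranded by primer extension were incubated with the protein at 200 nM in PBS (pH 7.5), then scanned and quantified. All ungapped 8-mers were scored from probe intensities, and each received an enrichment E-score from the Universal PBM Analysis Suite, averaged over duplicate arrays.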
Turning to ACATTCAT, the “PBM E-score of 8-mer” value was -0.0631 ± 0.014.
Regarding AGCCAGGA, the “PBM E-score of 8-mer” value is -0.061 ± 0.035.
For TCAAACCA, the “PBM E-score of 8-mer” value is -0.193 ± 0.022.
With CACTCTAC the figure was 0.141 ± 0.019.
Take ACCAGCAG: the “PBM E-score of 8-mer” value is -0.122 ± 0.0018.
Regarding ATCGGGCA, the “PBM E-score of 8-mer” value worked out at 0.0185 ± 0.015.
With TGCAACAA, the “PBM E-score of 8-mer” value was found to be 0.0749 ± 0.018.
Regarding GGCTCACC, the “PBM E-score of 8-mer” value was determined as 0.0326 ± 0.0083.
In the case of GTATTAGA, the “PBM E-score of 8-mer” value was -0.314 ± 0.011.
For GCGGAGCC, the “PBM E-score of 8-mer” value is -0.238 ± 0.082.
With ATAAGATG, the “PBM E-score of 8-mer” value was -0.11 ± 0.082.
Take ATACCACC: the “PBM E-score of 8-mer” value is 0.117 ± 0.031.
With CATGCTAG, the “PBM E-score of 8-mer” value was 0.0119 ± 0.078.
For the sequence CATATGTC, the “PBM E-score of 8-mer” value was determined as 0.0187 ± 0.011.
With CTTGCTCC the figure was -0.105 ± 0.082; with GTCGACTA, 0.123 ± 0.0065.
In the case of GGTTCTAC it was -0.0593 ± 0.028; in that of CTCTATCC, -0.168 ± 0.016; in that of GCTCAAAA, 0.0264 ± 0.084.
In the case of AATTCAAG it was -0.162 ± 0.095.
With ACTTGGGA, the “PBM E-score of 8-mer” value is 0.0708 ± 0.014.
On to TTATTAAA, for which the “PBM E-score of 8-mer” value was -0.06699 ± 0.00049.
As to CTCATGCA, the “PBM E-score of 8-mer” value was -0.151 ± 0.035.
On to GGCATGCC, for which the “PBM E-score of 8-mer” value was -0.311 ± 0.028.
AGATTCGA: the “PBM E-score of 8-mer” value was determined as 0.0401 ± 0.019.
In the case of AAAGACCT, the “PBM E-score of 8-mer” value was -0.102 ± 0.054.
As for GATTGATA, the “PBM E-score of 8-mer” value was -0.0767 ± 0.054.
With ATTTTCTC, the “PBM E-score of 8-mer” value was found to be 0.108 ± 0.096.
For the sequence AGTAGCCA, the “PBM E-score of 8-mer” value is -0.209 ± 0.07.
Regarding CATGCTGC, the “PBM E-score of 8-mer” value was -0.229 ± 0.023.
With CTGATAGA the figure was -0.188 ± 0.012.
CCCTTATA: the “PBM E-score of 8-mer” value is -0.247 ± 0.0066.
With AAGGAAAG, the “PBM E-score of 8-mer” value was -0.0595 ± 0.01.
As to CTCAAGTC, the “PBM E-score of 8-mer” value was -0.0501 ± 0.022.
In the case of AACGGGGC it was -0.0558 ± 0.11; in that of AATATGGT, -0.157 ± 0.052.
With ATAGGACC the figure was -0.184 ± 0.015; with AAACGCCA, 0.08653 ± 0.00074; with CTTGTGAA, 0.329 ± 0.012.
With AACGTCAA the figure was -0.0341 ± 0.049.
Turning to CGTAGTCC, the “PBM E-score of 8-mer” value is -0.208 ± 0.01.
With AAGGTGCA the figure was 0.4 ± 0.011.
As to CCTACGAC, the “PBM E-score of 8-mer” value is -0.204 ± 0.0051.
With CGCTGAGC the figure was 0.0459 ± 0.011; with TCGTAAAA, -0.0417 ± 0.095.
CCAACCAA: the “PBM E-score of 8-mer” value is -0.2261 ± 0.0014.
Regarding ACACGGCC, the “PBM E-score of 8-mer” value came out at 0.0316 ± 0.032.
In the case of CAGCCCTC it was -0.124 ± 0.063.
As to AGGCGGTG, the “PBM E-score of 8-mer” value stood at 0.046 ± 0.021.
With ACTAGCCG the figure was 0.0604 ± 0.025; with CCTCTGCA, -0.044 ± 0.055.
On to CTATGGCA, for which the “PBM E-score of 8-mer” value worked out at 0.1719 ± 0.00059.
For the sequence TCATGCCA, the “PBM E-score of 8-mer” value turned out to be 0.129 ± 0.0089.
On to CTCTCCAA, for which the “PBM E-score of 8-mer” value was -0.101 ± 0.046.
For the sequence CCGTTGAG, the “PBM E-score of 8-mer” value was -0.186 ± 0.02.
Take ATGGCACA: the “PBM E-score of 8-mer” value was determined as 0.103 ± 0.0048.
On to TCTTTTAA, for which the “PBM E-score of 8-mer” value was found to be 0.0798 ± 0.059.
As to CCGCGGGA, the “PBM E-score of 8-mer” value is -0.189 ± 0.065.
For ACCGTAAG, the “PBM E-score of 8-mer” value worked out at 0.0296 ± 0.0033.
As for ACTAACTA, the “PBM E-score of 8-mer” value was 0.125 ± 0.03.
With CCGGAGGA the figure was -0.2 ± 0.036.
Consider ATGGGCTA, for which the “PBM E-score of 8-mer” value is -0.147 ± 0.005.
As for AAGTCTCG, the “PBM E-score of 8-mer” value worked out at 0.185 ± 0.0019.
On to CAAAAGTA, for which the “PBM E-score of 8-mer” value was -0.123 ± 0.056.
With GGTTTTTA the figure was -0.202 ± 0.0096.
With AGTTGGGC the figure was -0.0671 ± 0.067; with GACCGAAA, -0.0308 ± 0.027; with ATAGCTAC, -0.194 ± 0.076.
Regarding ACAATAAA, the “PBM E-score of 8-mer” value is -0.174 ± 0.095.
With CCCGTTAA the figure was 0.196 ± 0.0089; with GCTCGAGA, -0.0327 ± 0.038; with ACGACGCT, 0.088 ± 0.029.
For AACATTGG, the “PBM E-score of 8-mer” value is 0.0336 ± 0.043.
With AGACATCA the figure was -0.124 ± 0.015.
In the case of CAGGGTTA, the “PBM E-score of 8-mer” value was -0.0478 ± 0.038.
As for ACTGTCAC, the “PBM E-score of 8-mer” value came to 0.392 ± 0.018.
Take CGACGTCC: the “PBM E-score of 8-mer” value was -0.17 ± 0.024.
With GTTGTACA, the “PBM E-score of 8-mer” value worked out at 0.0957 ± 0.022.
With GGCCATGA the figure was -0.214 ± 0.055; with GCTTATGA, -0.18 ± 0.0093.
Regarding GCCGTTGA, the “PBM E-score of 8-mer” value is -0.0383 ± 0.037.
Take CGGGGTCC: the “PBM E-score of 8-mer” value is -0.268 ± 0.016.
In the case of GCTCGATA, the “PBM E-score of 8-mer” value was -0.0648 ± 0.038.
With AGATCTCA the figure was 0.1 ± 0.044; with GAGAACGA, 0.06861 ± 0.00056.
With AAGGGTCG the figure was -0.261 ± 0.018.
Take AGGCATTA: the “PBM E-score of 8-mer” value turned out to be 0.00833 ± 0.012.
With CATCGACG, the “PBM E-score of 8-mer” value was 0.0899 ± 0.077.
On to GGCTGTAA, for which the “PBM E-score of 8-mer” value is -0.00799 ± 0.063.
Turning to GTAGTGAC, the “PBM E-score of 8-mer” value turned out to be 0.216 ± 0.032.
Consider CGCATCCA, for which the “PBM E-score of 8-mer” value was -0.133 ± 0.051.
As to TCTCTGCA, the “PBM E-score of 8-mer” value is -0.0957 ± 0.045.
In the case of AAGTTGTA it was -0.0651 ± 0.0049; in that of CCACATCG, 0.0335 ± 0.06.
With CGGGGATA the figure was -0.166 ± 0.042; with ACGCCACC, 0.261 ± 0.053; with ATAATTTG, -0.197 ± 0.017.
As for AAACAACA, the “PBM E-score of 8-mer” value came to 0.096 ± 0.031.
In the case of CGATTATC it was 0.0589 ± 0.052; in that of TCTGAAGA, -0.207 ± 0.019; in that of CCTCGACA, 0.214 ± 0.032.
With CTGTCAGA the figure was 0.211 ± 0.014.
With CTACAGTA the figure was -0.0388 ± 0.061; with CTGCAATC, -0.0811 ± 0.026; with TAAGATGA, -0.119 ± 0.045.
As for ATCCGTAG, the “PBM E-score of 8-mer” value is -0.159 ± 0.035.
GACAATAC: the “PBM E-score of 8-mer” value was -0.0362 ± 0.021.
Consider ATGGAGAA, for which the “PBM E-score of 8-mer” value is -0.273 ± 0.038.
As to AGTCCGAC, the “PBM E-score of 8-mer” value is -0.194 ± 0.097.
